For test [1], the target named is His-tagged recombinant TAZ (UniProt Q9GZV5). Description: co-IP; in vitro, pairs of E. coli-generated His-tagged recombinant proteins; co-IP procedure similar to that for lysates; western blot of input (10%) and IP; both purified.
The target in test [2] is TAZ (human (endogenous in MCF-10A-ER-Src)) (UniProt Q9GZV5). Description: co-IP; endogenous proteins in the cytoplasm fraction of non-transformed (ethanol) and transformed (tamoxifen) MCF-10A-ER-Src cells; antibodies against the indicated proteins or IgG control, Dynabead protein G; co-IP buffer 50 mM Tris pH 7.5, 100 mM NaCl, 1.5 mM EGTA, 0.1% Triton X-100; 4°C ….
In test [3] the target is YAP (human (endogenous in MCF-10A-ER-Src)) (UniProt P46937). The test is described as above.
In test [4] the target is TAZ (human (endogenous in MCF-10A-ER-Src)) (UniProt Q9GZV5). Description: co-IP; endogenous proteins in nucleoplasm and chromatin fractions of non-transformed (ethanol) and transformed (tamoxifen) MCF-10A-ER-Src cells; antibodies against the indicated proteins or IgG control, Dynabead protein G; co-IP buffer 50 mM Tris pH 7.5, 100 mM NaCl, 1.5 mM EGTA, 0.1% Triton X-100; 4°C overnight; co-IP in general more efficient in transformed cells.

By UniProt entry, the sequences of proteins in these tests, tags left out.
UniProt Q9GZV5: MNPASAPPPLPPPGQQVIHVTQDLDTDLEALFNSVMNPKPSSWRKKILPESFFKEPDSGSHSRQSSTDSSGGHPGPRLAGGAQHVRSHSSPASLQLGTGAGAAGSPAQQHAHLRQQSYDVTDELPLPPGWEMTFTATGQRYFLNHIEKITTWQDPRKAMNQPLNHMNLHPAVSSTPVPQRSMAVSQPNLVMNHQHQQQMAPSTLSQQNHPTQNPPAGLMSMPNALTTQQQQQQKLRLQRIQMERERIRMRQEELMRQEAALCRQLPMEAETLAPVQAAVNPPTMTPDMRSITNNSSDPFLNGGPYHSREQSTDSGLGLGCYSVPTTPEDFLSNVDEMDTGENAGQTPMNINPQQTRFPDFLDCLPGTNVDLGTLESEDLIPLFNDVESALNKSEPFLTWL
UniProt P46937: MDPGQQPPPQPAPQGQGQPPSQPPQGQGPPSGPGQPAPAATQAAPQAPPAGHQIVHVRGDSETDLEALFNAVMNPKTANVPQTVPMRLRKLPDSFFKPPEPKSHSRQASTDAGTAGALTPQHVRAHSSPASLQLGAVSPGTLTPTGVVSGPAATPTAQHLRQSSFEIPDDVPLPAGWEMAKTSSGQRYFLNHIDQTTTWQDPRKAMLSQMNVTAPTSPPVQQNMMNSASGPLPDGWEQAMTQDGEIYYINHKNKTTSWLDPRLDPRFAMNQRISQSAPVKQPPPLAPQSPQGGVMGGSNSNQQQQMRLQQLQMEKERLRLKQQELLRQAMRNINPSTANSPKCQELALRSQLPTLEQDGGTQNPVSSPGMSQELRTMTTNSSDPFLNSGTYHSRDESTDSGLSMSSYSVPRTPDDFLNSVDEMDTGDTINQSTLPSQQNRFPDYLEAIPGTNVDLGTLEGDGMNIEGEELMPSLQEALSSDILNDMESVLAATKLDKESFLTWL
UniProt P40763: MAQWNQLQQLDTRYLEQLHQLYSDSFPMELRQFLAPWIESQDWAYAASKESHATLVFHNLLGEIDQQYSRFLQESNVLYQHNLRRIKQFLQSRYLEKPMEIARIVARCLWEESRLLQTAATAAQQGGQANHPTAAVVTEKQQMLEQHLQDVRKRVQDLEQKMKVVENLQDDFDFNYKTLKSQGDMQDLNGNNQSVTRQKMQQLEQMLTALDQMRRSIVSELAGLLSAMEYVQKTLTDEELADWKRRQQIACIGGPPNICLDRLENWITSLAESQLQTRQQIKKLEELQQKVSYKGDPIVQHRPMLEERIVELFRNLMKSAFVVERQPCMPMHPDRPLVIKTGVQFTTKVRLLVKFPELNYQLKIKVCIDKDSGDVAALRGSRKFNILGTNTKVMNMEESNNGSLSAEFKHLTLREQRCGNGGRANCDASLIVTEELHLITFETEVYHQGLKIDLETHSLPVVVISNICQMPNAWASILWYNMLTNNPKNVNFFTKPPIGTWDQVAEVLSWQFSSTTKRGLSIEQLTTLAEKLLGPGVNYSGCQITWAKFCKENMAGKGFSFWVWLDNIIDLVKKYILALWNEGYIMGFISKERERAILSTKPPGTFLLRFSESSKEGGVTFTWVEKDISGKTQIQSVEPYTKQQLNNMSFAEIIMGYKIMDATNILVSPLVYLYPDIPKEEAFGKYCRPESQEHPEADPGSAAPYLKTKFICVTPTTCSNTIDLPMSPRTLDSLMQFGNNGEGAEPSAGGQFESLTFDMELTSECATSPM

The target in test [5] is HA-tagged TAZ (wild type) (UniProt Q9GZV5). Description: co-IP; HA-tagged YAP or TAZ derivatives co-expressed with FLAG-tagged STAT3 or JUNB in 293T cells for 2 days; IP with anti-HA antibody or control IgG, Dynabead protein G; co-IP buffer 50 mM Tris pH 7.5, 100 mM NaCl, 1.5 mM EGTA, 0.1% Triton X-100; 4°C overnight.

No constants are given. Whether binding was seen depends on the method and setting. For some assays here: Binding seen in cells or lysates may run through a third protein. Some results given as binding are weak or reduced against the parent protein; the word gives no strength.

Here are results for three substances from paper PMC8463077.

As for “His-tagged recombinant STAT3 (from UniProt P40763 1-770)”, in test [1], the binding entry is “binds”. With STAT3 (from UniProt P40763 1-770), the binding entry is reported as “no binding (condition: cytoplasm fraction)” in test [2], “no binding (condition: cytoplasm fraction)” in test [3] and “binds” in test [4].

Consider “FLAG-tagged STAT3 (from UniProt P40763 1-770)”, for which the binding entry in test [5] is recorded as “binds”.
